{"source": "PubChem BioAssay AID1030", "about": "(National Center for Advancing Translational Sciences (NCATS), 2008)", "note": "Among all 220,000 compounds or so, about 16,000 (7.3%) were called active. The inconclusive results got no clear call from the source; some entries with a clear call stand among them for comparison. Calls come from the whole dose curve; as a rule, active = well fitted inhibition curve with a large enough effect (not every such curve was filed as active); inconclusive = small, poorly fitted or top-dose-only effect, or another doubt; inactive = no such curve, though single readings can be large or run the other way. No potency is given beside an inconclusive call; the fits are too rough. Potency is the fitted concentration of half-maximal effect; tags give direction and shape of the fitted curve.", "data": [{"biological_target": "Aldehyde dehydrogenase 1A1 (Homo sapiens) (UniProt P00352)", "sequence (P00352 whole entry, looked up)": "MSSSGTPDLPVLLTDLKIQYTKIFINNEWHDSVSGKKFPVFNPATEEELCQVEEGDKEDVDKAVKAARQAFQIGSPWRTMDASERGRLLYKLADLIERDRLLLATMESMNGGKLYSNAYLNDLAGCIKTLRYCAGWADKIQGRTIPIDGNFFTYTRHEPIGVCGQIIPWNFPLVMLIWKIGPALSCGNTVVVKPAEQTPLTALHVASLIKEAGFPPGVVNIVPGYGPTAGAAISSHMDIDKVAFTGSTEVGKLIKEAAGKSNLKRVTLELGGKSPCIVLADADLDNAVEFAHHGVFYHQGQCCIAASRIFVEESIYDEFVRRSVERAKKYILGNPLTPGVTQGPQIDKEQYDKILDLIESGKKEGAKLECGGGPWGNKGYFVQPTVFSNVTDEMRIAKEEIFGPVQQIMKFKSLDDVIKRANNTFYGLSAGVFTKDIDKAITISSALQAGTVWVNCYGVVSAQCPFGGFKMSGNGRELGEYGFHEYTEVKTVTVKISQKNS", "test": "qHTS Assay for Inhibitors of Aldehyde Dehydrogenase 1 (ALDH1A1);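 for activity, negative = inhibition: plate controls were no enzyme wells and a reference inhibitor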", "conditions": "Purified ALDH1A1, NADH fluorescence, propionaldehyde substrate; series mostly up to 75.3 µM", "values": [{"smiles": "O=C(Nc1cccc(Cl)c1N1CCCC1)c1cc2ccccc2o1", "Potency": "inconclusive [inhibitor, partial curve, poor fit]"}, {"smiles": "COc1cc(OC)c2c(c1O)OC(c1ccccc1)CC2=O", "note": "(configuration not stated)", "Potency": "inactive"}, {"smiles": "Cc1cc(C)n2ncc(C(=O)NCc3cccnc3)c2n1", "Potency": "inconclusive [inhibitor, partial curve]"}, {"smiles": "CCOCC(=O)Nc1nnc(COCC)s1", "Potency": "inconclusive [inhibitor, single point]"}, {"smiles": "CCC(CC)C(=O)NC12CC3CC(CC(C3)C1)C2", "Potency": "inactive"}, {"smiles": "COc1cccc(-c2cncnc2-n2ccnc2)c1", "Potency": "inconclusive [inhibitor, partial curve]"}, {"smiles": "O=C(Nc1cc(C(F)(F)F)ccc1N1CCOCC1)c1cn2ccccc2n1", "Potency": "inconclusive [inhibitor, partial curve]"}, {"smiles": "Cc1ccc(S(=O)(=O)N(C)C)cc1NC(=S)Nc1ccc2cn[nH]c2c1", "Potency": "inconclusive [inhibitor, single point]"}, {"smiles": "CC(=O)OC(C)=O", "Potency": "inconclusive [inhibitor, single point]"}, {"smiles": "COc1cc2oc(=O)cc(-c3ccc(-c4ccc(CO)cc4)cc3)c2c(OC)c1OC", "Potency": "inconclusive [inhibitor, single point]"}, {"smiles": "COC(=O)Nc1csc2c1NC(=O)CCCC2", "Potency": "inactive"}, {"smiles": "COc1ccc(Cn2nnnc2C(c2cc3ccc(OC)cc3[nH]c2=O)N2CCCCCC2)cc1", "note": "(configuration not stated)", "Potency": "inconclusive [inhibitor, partial curve, poor fit]"}, {"smiles": "Cc1ccn2cc(-c3cccc(NC(=O)C(C)C)c3)nc2c1", "Potency": "inconclusive [inhibitor, partial curve]"}, {"smiles": "O=C(NC1CCCCCCC1)C1CCN(c2nc3ccccc3o2)CC1", "Potency": "inactive"}, {"smiles": "Cc1ccc(S(=O)(=O)N=Nc2c(O)[nH]c3cc(O)c(C(=O)O)cc23)cc1", "activity, negative = inhibition": "inactive: 6.58% [at 13.5 µM]"}, {"smiles": "CCCSc1nc(N2CCCC2)c2c(c1C#N)CC(C)(C)OC2", "Potency": "inconclusive [inhibitor, partial curve]"}, {"smiles": "Cc1ccc(S(=O)(=O)N/N=C/c2ccc(OCC(=O)N3CCOCC3)cc2)cc1", "Potency": "inconclusive [inhibitor, single point]"}, {"smiles": "O=C(CN1C(=O)c2ccccc2C1=O)NN1C(=O)c2ccccc2C1=O", "Potency": "active: 2.82 µM"}, {"smiles": "Cc1nnsc1-c1onc(C)c1C(=O)O/N=C/c1ccc(Cl)cc1", "Potency": "inactive"}, {"smiles": "COc1cccc(NC(=O)Cn2c(CCC(=O)O)ccc2-c2cccs2)c1", "Potency": "inconclusive [inhibitor, single point]"}, {"smiles": "CC(=O)Nc1c(C(=O)c2ccccc2)oc2ccccc12", "Potency": "inconclusive [inhibitor, single point]"}, {"smiles": "O=C(c1ccco1)N1CCN(/C(=N/S(=O)(=O)c2cccs2)c2ccccc2Cl)CC1", "Potency": "inconclusive [inhibitor, single point]"}, {"smiles": "Cc1ccccc1-c1cncnc1Nc1ccc(F)cc1", "Potency": "inconclusive [inhibitor, single point]"}, {"smiles": "Cc1ccc2[nH]c3c(c2c1)CCCC3=O", "Potency": "inconclusive [inhibitor, single point]"}, {"smiles": "O=c1[nH]c2ccc(S(=O)(=O)Nc3ccc(-c4nnc5n4CCCCC5)cc3)cc2o1", "Potency": "inactive"}, {"smiles": "Cc1ccc(NC(=O)N2CCC(=O)N2)cc1", "Potency": "inconclusive [inhibitor, single point]"}, {"smiles": "N#Cc1cccc(NC(=O)CCn2ccnc2)c1", "Potency": "inconclusive [inhibitor, single point]"}, {"smiles": "COc1ccc(-c2noc(CSc3nc4ccccc4c(=O)n3-c3ccccc3)n2)cc1", "Potency": "inactive"}, {"smiles": "N#CC(c1ccccc1)N(CCCCl)C(=O)c1ccc(Br)cc1", "note": "(configuration not stated)", "Potency": "inconclusive [inhibitor, single point]"}, {"smiles": "Cc1ccc(S(=O)(=O)N2CCC(=O)N(C(COCc3cccc(C(F)(F)F)c3)Cc3ccccc3)CC2)cc1", "note": "(configuration not stated)", "Potency": "inactive"}, {"smiles": "CCOC(=O)c1cnn(-c2ccccc2)c1-n1cccc1C(=O)C(=O)Nc1ccccc1", "Potency": "inactive"}, {"smiles": "O=C(NCc1cccs1)c1ccc(N2CCCCC2)nc1", "Potency": "active: 12.6 µM"}, {"smiles": "O=C(O)/C=C/C(=O)Nc1ccc(C(=O)c2ccccc2)cc1", "Potency": "inconclusive [inhibitor, partial curve]"}, {"smiles": "CS(=O)(=O)c1ccc(-c2nc(-c3ccc(F)cc3)c(-c3ccncc3)[nH]2)cc1", "Potency": "inconclusive [inhibitor, single point]"}, {"smiles": "O=C(CN(Cc1ccccc1)C1=NCCS1)c1ccccc1", "Potency": "inactive"}, {"smiles": "CCC(CC)c1nnc(NC(=O)/C=C/c2ccco2)s1", "Potency": "inconclusive [inhibitor, single point]"}, {"smiles": "CC(C)(C)c1ccc(C(=O)NNC(=O)Cc2cccc3ccccc23)cc1", "Potency": "inactive"}, {"smiles": "O=C(CCCc1ccccc1)NCCC1=CCCCC1", "Potency": "inconclusive [inhibitor, single point]"}, {"smiles": "COc1cccc(CNC(=O)C2CCN(S(=O)(=O)N3CCCC3)CC2)c1", "Potency": "inconclusive [inhibitor, partial curve]"}, {"smiles": "CCOC(=O)COc1ccc(S(=O)(=O)N2CCN(c3ccccc3)CC2)cc1", "Potency": "inactive"}, {"smiles": "CCN(CC)C(=O)c1sc2nc(-c3cccs3)cc(-c3cccs3)c2c1N", "Potency": "active: 20 µM"}, {"smiles": "CN(C)/N=C/C=C1\\CCC/C(=C\\c2ccc(F)c(F)c2)C1=O", "Potency": "inconclusive [inhibitor, single point]"}, {"smiles": "CCOc1ccc(N=Nc2c(N)[nH][nH]c2=O)cc1", "Potency": "active: 18.9 µM"}, {"smiles": "Cc1cc(NC(=O)C2C3C(=O)N(Cc4ccc(Cl)cc4)C(C(=O)NCc4ccccc4)C34C=CC2(C)O4)no1", "note": "(configuration not stated)", "Potency": "inactive"}, {"smiles": "Cc1nc(-c2ccc(NC(=O)c3ccccc3Br)cc2)cs1", "Potency": "inactive"}, {"smiles": "CCOC(=O)C1C(=O)C(C(=O)OCC)C(c2cccnc2)NC1c1cccnc1", "note": "(configuration not stated)", "Potency": "inconclusive [inhibitor, partial curve]"}, {"smiles": "C=C1CC[C@H](O)C/C1=C/C=C1\\CCC[C@]2(C)[C@H]1CC[C@H]2[C@@H](C)/C=C\\[C@@H](C)C(C)C", "Potency": "inactive"}]}]}
